Data from PubChem BioAssay AID1347165 (National Center for Advancing Translational Sciences (NCATS), 2019).
Hit rate of the full screen: of about 220,000 compounds, about 5,700 (2.6%) were called active. Inconclusive means that the source gave no clear call. Such entries were picked first, then a sample of the others. The call rests on the fitted dose curve; in most records, active means well fitted inhibition curve with a large enough effect; inconclusive means small, poorly fitted or top-dose-only effect; inactive means no such curve, though single readings can be large or run the other way. A potency beside an inconclusive call is a rough fit, not a confirmed value.

Molecular target: Lysine-specific demethylase 5B (Homo sapiens) (UniProt Q9UGL1)
Assay: Primary screen for KDM5B Histone Demethylases FDH-coupled qHTS; further: nearly all actives have a fitted effect of over 70% in size; on activity change, negative = inhibition: 0% is about no effect
Conditions: FDH-coupled NADH fluorescence (FDH is formaldehyde dehydrogenase); activity change, negative = inhibition: at 57.7 µM (top of the series) unless noted
Method in brief: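 Inhibition is measured as reduced NADH fluorescence generation from FDH coupling to formaldehyde release. Truncated KDM5BΔAP at 200 nM final acts on H3K4me3 peptide (12.5 µM in substrate mix) in pH 7.5 HEPES buffer with Tween-20, 30 min, room temperature.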
Potency means the concentration at half of the fitted maximal effect; tags describe the fitted curve by direction and shape.

UniProt Q9UGL1, sequence (Q9UGL1 whole entry, looked up): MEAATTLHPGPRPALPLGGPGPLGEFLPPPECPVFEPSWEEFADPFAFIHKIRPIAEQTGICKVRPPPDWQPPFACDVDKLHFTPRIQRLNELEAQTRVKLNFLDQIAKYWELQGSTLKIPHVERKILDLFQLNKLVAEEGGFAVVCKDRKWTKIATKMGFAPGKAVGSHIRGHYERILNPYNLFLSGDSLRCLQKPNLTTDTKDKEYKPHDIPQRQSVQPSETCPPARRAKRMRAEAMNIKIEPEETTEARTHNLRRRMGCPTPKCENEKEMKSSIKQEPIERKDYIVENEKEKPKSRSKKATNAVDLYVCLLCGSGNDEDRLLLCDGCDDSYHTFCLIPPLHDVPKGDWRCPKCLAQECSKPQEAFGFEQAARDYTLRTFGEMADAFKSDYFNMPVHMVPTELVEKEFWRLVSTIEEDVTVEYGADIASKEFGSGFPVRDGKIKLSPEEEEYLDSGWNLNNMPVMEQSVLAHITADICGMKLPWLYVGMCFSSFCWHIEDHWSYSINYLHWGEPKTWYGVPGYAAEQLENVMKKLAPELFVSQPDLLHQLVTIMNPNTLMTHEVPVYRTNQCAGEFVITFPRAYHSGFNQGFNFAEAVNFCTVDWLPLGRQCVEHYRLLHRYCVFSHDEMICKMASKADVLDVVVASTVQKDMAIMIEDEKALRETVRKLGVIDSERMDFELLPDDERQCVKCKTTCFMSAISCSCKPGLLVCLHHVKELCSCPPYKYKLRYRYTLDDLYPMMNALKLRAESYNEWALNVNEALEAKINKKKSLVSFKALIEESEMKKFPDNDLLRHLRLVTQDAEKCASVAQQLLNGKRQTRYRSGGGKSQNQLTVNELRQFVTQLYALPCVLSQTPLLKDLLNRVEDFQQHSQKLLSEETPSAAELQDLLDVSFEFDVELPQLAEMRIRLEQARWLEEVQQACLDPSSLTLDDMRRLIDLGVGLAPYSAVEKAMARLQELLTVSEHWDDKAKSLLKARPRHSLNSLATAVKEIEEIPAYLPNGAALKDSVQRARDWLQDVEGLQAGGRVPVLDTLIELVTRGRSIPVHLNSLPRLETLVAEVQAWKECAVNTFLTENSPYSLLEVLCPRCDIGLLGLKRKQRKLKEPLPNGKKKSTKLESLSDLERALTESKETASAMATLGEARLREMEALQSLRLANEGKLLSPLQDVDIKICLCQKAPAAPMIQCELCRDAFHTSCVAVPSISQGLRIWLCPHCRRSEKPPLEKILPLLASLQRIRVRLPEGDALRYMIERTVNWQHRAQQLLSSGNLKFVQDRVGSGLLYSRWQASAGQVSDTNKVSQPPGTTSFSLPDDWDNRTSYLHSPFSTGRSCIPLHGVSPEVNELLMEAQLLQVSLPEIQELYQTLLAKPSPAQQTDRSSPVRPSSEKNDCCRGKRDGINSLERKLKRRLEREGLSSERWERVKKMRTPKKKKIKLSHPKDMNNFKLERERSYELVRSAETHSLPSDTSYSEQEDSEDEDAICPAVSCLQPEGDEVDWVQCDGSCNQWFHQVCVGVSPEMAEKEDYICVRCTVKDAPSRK

SMILES | Potency | activity change, negative = inhibition
Cc1ccc(S(=O)(=O)Cc2nc(-c3ccc(C(=O)NCCN4CCCCCC4)cc3)oc2C)cc1 | inconclusive: 31.6 µM [inhibitor, partial curve, poor fit] | –
CCOc1ccc(NC(=O)Cn2c(=O)c(-c3noc(C)n3)c3n(c2=O)CCCCC3)cc1 | – | inactive: 35.1%
CCOCCCNc1nc2c(c(=O)n(C)c(=O)n2C)n1Cc1ccc(Cl)cc1 | – | inactive: 11.5%
COCCn1c(C)nnc1-c1cc(-c2ccnc(OC)c2)ccn1 | inconclusive: 35.5 µM [inhibitor, single point] | –
O=C(Nc1ccc(S(=O)(=O)Nc2ncccn2)cc1)c1ccccc1NS(=O)(=O)c1ccc(Cl)cc1 | inconclusive: 20 µM [inhibitor, single point] | –
Cc1cc(C2CCCN2C(=O)c2ccc(-c3ccccc3Cl)o2)no1 (stereo not drawn) | inconclusive: 39.8 µM [inhibitor, single point] | –
N[C@@H]1CCN(C(=O)c2ccccc2OC(F)(F)C(F)F)C[C@H]1O | – | inactive: 17.2%
COc1cc(C2CC(=O)Nc3c2ncn3-c2cccc(C(F)(F)F)c2)cc2c1OCO2 (stereo not drawn) | inconclusive: 20 µM [inhibitor, partial curve, poor fit] | –
NCc1cccc(-c2ccccn2)c1 | inconclusive: 158 µM [inhibitor, partial curve, poor fit] | –
CCCNC(=O)CNC(=O)c1cc(=O)[nH]c2ccccc12 | inconclusive: 35.5 µM [inhibitor, single point] | –
COc1ccc2nc(CO[C@H]3CN(C4CCN(C(C)=O)CC4)C[C@H]3F)[nH]c2c1 | – | inactive: -9.93% [at 86.2 µM]
COc1ncccc1-c1cnc2[nH]cc(CC(=O)NC3CC3)c2c1 | inconclusive: 39.8 µM [inhibitor, partial curve, poor fit] | –
COc1cn(-c2ccccc2)nc1C(=O)OC(C)C(=O)NC1CCCC1 (stereo not drawn) | inconclusive: 28.2 µM [inhibitor, single point] | –
COc1ccc(O)c(C2=Nc3ccccc3N=C(c3ccccc3)C2)c1 | – | inconclusive: -34.6% [inhibitor]
CCc1ccc(CNC(=O)Cn2nc(-c3ccc(C)cc3)ccc2=O)cc1 | inconclusive: 25.1 µM [inhibitor, single point] | –
Cc1noc(-c2ccc3c(c2)OCO3)c1C(=O)NCCCOC(C)C | inconclusive: 28.2 µM [inhibitor, partial curve, poor fit] | –
Cc1ccc(-c2c(C)sc(NC(=O)CC3(CC(=O)O)CCCC3)c2C(N)=O)cc1C | – | inactive: 8.09%
Cc1ccc(Nc2sc(C(=O)c3ccccc3)c(N)c2S(=O)(=O)c2ccccc2)cc1Cl | inconclusive: 17.8 µM [inhibitor, partial curve, poor fit] | –
CCOC(=O)c1c(NC=C(C#N)C#N)sc(C)c1CC | inconclusive: 39.8 µM [inhibitor, single point] | –
O=C(OCCOc1ccc(Cl)cc1)c1ccccc1C(=O)c1ccc(Cl)cc1 | – | inactive: -4.94%
COc1ccc(C(C)=O)cc1CN(C)Cc1ccccc1 | – | inactive: 2.51%

SMILES | Potency | activity change, negative = inhibition
CCOc1cccc(CNC(=O)c2ccc(N3CCCC3)c(NC(=O)NCc3ccccc3)c2)c1 | inconclusive: 39.8 µM [inhibitor, single point] | –
Clc1ccc(-c2noc([C@@H]3Cc4nc[nH]c4CN3CC3CCCCC3)n2)cc1 | inconclusive: 31.6 µM [inhibitor, partial curve, poor fit] | –
CCCNC(=O)N1CCC2(CC1)NCCc1c2[nH]c2ccccc12 | inconclusive: 31.6 µM [inhibitor, partial curve, poor fit] | –
Cc1ccc(/C=C/C(=O)c2ccc(C)o2)o1 | inconclusive: 22.4 µM [inhibitor, partial curve, poor fit] | –
COc1ccccc1CN1CC(CNC(=O)Nc2ccccc2)C2(C1)CN(c1ccccc1)C2 (stereo not drawn) | inconclusive: 35.5 µM [inhibitor, single point] | –
O=C(CCc1cc2ccccc2[nH]c1=O)NCc1ccco1 | inconclusive: 25.1 µM [inhibitor, partial curve, poor fit] | –
CCn1cc(C(=O)NCCc2ccc(OC)c(OC)c2)c(=O)c2cc(S(=O)(=O)N(C)C3CCCCC3)ccc21 | inconclusive: 31.6 µM [inhibitor, partial curve, poor fit] | –
COc1cc2c(cc1OC)C(C[C@H]1CN(S(=O)(=O)c3cccs3)CC[C@H]1CC(=O)O)=NCC2 | active: 28.2 µM | –
COc1ccc2c(C)c(CC(=O)NCc3ccccc3Cl)c(=O)oc2c1 | inconclusive: 15.8 µM [inhibitor, partial curve, poor fit] | –
O=C(Nc1ccccc1)N1CCC2(CC1)CC(=O)N(c1ccccc1)c1ccccc1O2 | – | inactive: -9.51%
Cc1oc(-c2ccccc2NC(=O)C2CCC2)nc1CNC(=O)Cc1cc(F)cc(F)c1 | inconclusive: 39.8 µM [inhibitor, single point] | –
Cc1nnnn1-c1cccc(NC(=O)NC2CCCCC2)c1 | – | inactive: 12%
CC(C)NC(=O)N1Cc2ccccc2OC2(CCN(C(=O)c3ccc4[nH]ccc4c3)CC2)C1 | – | inactive: 24.2% [at 115 µM]
C=CCn1nc(C(=O)N2CCOCC2)c2c1CCC(NCc1c(OC)ccc3ccccc13)C2 (stereo not drawn) | inconclusive: 25.1 µM [inhibitor, partial curve, poor fit] | –
CCCc1cc(=O)oc2cc(OCc3nn[nH]n3)ccc12 | inconclusive: 28.2 µM [inhibitor, partial curve, poor fit] | –
Cn1nc(C(=O)Nc2nc3c(s2)CCC3)c2ccccc2c1=O | – | inactive: -12.7%
Cc1cc(OC(C)C(=O)N(Cc2ccc(N(C)C)cc2)Cc2ccco2)ccc1Cl (stereo not drawn) | inconclusive: 14.1 µM [inhibitor, partial curve, poor fit] | –
S=c1[nH]nc(-c2cc(-c3ccccc3)n[nH]2)n1/N=C/C(Br)=C/c1ccccc1 | inconclusive: 11.2 µM [inhibitor, partial curve, poor fit] | –
CCn1nc(C)c2c(-c3ccccc3)cc(=O)n(C(C)C(=O)NCc3ccccc3OC)c21 (stereo not drawn) | inconclusive: 31.6 µM [inhibitor, partial curve, poor fit] | –
O=C(O)CCC(=O)N1CCC2(CC1)CC(Cc1ccccc1)=NO2 | – | inactive: -16.6% [at 149 µM]
CN(C)CCOCC1(C)COc2ccc(C(=O)Nc3cccc(N(C)C)c3)cc2N1 (stereo not drawn) | inconclusive: 28.2 µM [inhibitor, single point] | –

SMILES | Potency | activity change, negative = inhibition
COc1ccc(-c2nc(-c3c(C)noc3C)cc3[nH]c(C)cc23)cn1 | active: 35.5 µM | –
Cc1ccccc1-c1nccc2c(=O)cc(-c3cccnc3)oc12 | active: 39.8 µM | –
c1ccc(-c2cn3c4ccccc4n(CCN4CCCCC4)c3n2)cc1 | inconclusive: 28.2 µM [inhibitor, partial curve, poor fit] | –
CCCS(=O)(=O)N1CC[C@@H](CC(=O)O)[C@@H](CC2=NCCc3cc(OC)ccc32)C1 | active: 31.6 µM | –
O=C1NCCCCCN(Cc2cccc(F)c2)[C@@H]2C[C@@H](C(=O)N3CCc4ccccc4C3)C[C@H]12 | inconclusive: 39.8 µM [inhibitor, partial curve, poor fit] | –
COc1ccccc1NC(=O)Cn1c(=O)c(CNc2ccccc2)cc2cc(OC)c(OC)cc21 | inconclusive: 10 µM [inhibitor, partial curve, poor fit] | –
CCN(CC)CCCNC(=O)c1cn(C)c(=O)c2c1c1ccccc1n2C | inconclusive: 22.4 µM [inhibitor, partial curve, poor fit] | –
Fc1ccc(-n2ncc3c(Nc4cccc(Cl)c4)ncnc32)cc1 | inconclusive: 17.8 µM [inhibitor, partial curve, poor fit] | –
Cc1cccc(CNC(=O)c2ccc3c(c2)c(C)c(C)n3Cc2ccccc2)c1 | inconclusive: 7.94 µM [inhibitor, partial curve, poor fit] | –
COc1ccccc1C1C=C(c2ccc(C(C)C)cc2)Nc2nnnn21 (stereo not drawn) | inconclusive: 20 µM [inhibitor, partial curve, poor fit] | –
Cc1ccc(-c2csc(Nc3ccc(O)c(C(=O)O)c3)n2)cc1 | inconclusive: 8.91 µM [inhibitor, partial curve, poor fit] | –
O=C(N[C@H]1CCCNC1=O)C1=C[C@@H](NS(=O)(=O)c2cccs2)[C@@H](O)[C@H](O)C1 | – | inactive: -5.92% [at 86.2 µM]
Cc1ccc(C)c(S(=O)(=O)c2nnn3c2nc(NCc2ccc(F)cc2)c2ccccc23)c1 | inconclusive: 31.6 µM [inhibitor, partial curve, poor fit] | –
COc1ccc(NC(=O)O/N=C/c2ccc(N(C)C)cc2)cc1 | inconclusive: 22.4 µM [inhibitor, single point] | –
COc1ccc(OC)c(CNC(=O)c2ccc3c(c2)N(S(C)(=O)=O)CC3)c1 | – | inactive: -1.98%
CCCc1nc(SC)ncc1C(=O)Nc1ccc(C)cc1Cl | – | inactive: 4.63%
CCc1nc(NCCN(CC)CC)c(C#N)c2c1CCCC2 | inconclusive: 22.4 µM [inhibitor, partial curve, poor fit] | –
Cc1ccc(C)c(C(=O)N2CCN(c3cc(-c4ccc(Cl)cc4)[nH]n3)CC2)c1 | inconclusive: 25.1 µM [inhibitor, single point] | –
COC(=O)c1cc(NC(=O)c2cc3sccc3n2Cc2ccc(Cl)cc2)cc(C(=O)OC)c1 | inconclusive: 22.4 µM [inhibitor, partial curve, poor fit] | –
COc1cc(Nc2nc(SCc3ccccc3Cl)nc3ccccc23)cc(OC)c1 | inconclusive: 35.5 µM [inhibitor, partial curve, poor fit] | –
CCc1ccccc1NC(=O)CCCN1C(=O)CCn2nc(-c3cn(C)c4ccccc34)cc21 | – | inconclusive: -35% [inhibitor]
